{
  "source": "patent US8962844B2",
  "about": "“1,3,4-oxadiazole and 1,3,4-thiadiazole β-lactamase inhibitors” (priority 2012, dated 2015)",
  "test_system": "bacterial strains that express KPC β-lactamases",
  "assay": "Standard BLI potentiation MIC / synergy MIC (sMIC) assays run in the presence of a β-lactam, KPC expressing strains",
  "assay_type": "cell-based",
  "settings": "more active for at least one KPC strain and/or better spectrum of activity than Avibactam; BLI in combination with a β-lactam",
  "description": "Unless otherwise indicated, the activity of the BLI compounds can be described by the MIC value obtained from a Synergy MIC assay or a BLI potentiation assay (e.g as described herein), both of which are run in the presence of a β-lactam.\nA set of β-lactamase expressing isogenic E. coli strains was constructed by cloning a β-lactamase gene into a customized derivative of pBR322 (GenBank Accession Number J01749) and transforming the engineered plasmids into E. coli. The NdeI restriction site within the plasmid backbone of pBR322 was removed to generate pBR322 ΔNdeI. The pBR322 ΔNdeI vector itself, minus the blaTEM-1 gene, was amplified using two primers: (1) pBR-Pbla 5′-cgcatatgactettectttttcaatattattg-3, SEQ ID 1, a primer with an engineered NdeI restriction site at the 3′ end of the blaTEM-1 promoter and (2) pBR-vec-1 5′-[…]-3′, SEQ ID 2, a primer with an engineered BamHI restriction site at the 3′ end of the blaTEM-1 open reading frame. The chloramphenicol resistance gene, cat, was generated by PCR amplification from pKD3 (GenBank Accession Number AY048742) using primers with an engineered NdeI restriction site at the 5′ end (Pbla-cat 5′-[…]-3′, SEQ ID 3) and an engineered BamHI restriction site at the 3′ end (Vec-1-cat 5′-[…]-3′, SEQ ID 4) of the resistance gene. […]",
  "note": "Counter-ions that a name gives are not always drawn. At least one structure is not confirmed: it was looked up by name or label, or the drawing left a doubt.",
  "data": [
    {"smiles": "C[n+]1ccc(-c2nnc([C@@H]3CC[C@@H]4CN3C(=O)N4OS(=O)(=O)[O-])s2)cc1", "note": "[Compound 786, (2S,5R)-2-(5-(1-methylpyridin-1-ium-4-yl)-1,3,4-thiadiazol-2-yl)-7-oxo-1,6-diazabicyclo[3.2.1]octan-6-yl sulfate]", "values": [
      {"measurement": "activity and/or spectrum of activity against bacterial strains that express KPC β-lactamases, compared with Avibactam", "value": "more active than Avibactam"}
    ]}
  ]
}
